The supplement of paper PMC10338343
± gives the standard deviation. The list shows a part of the results, in another mix than the full data.

Tested on: MIWI (PIWIL1) piRISC loaded with L1MC piRNA (30 nt)
Assay: pre-steady-state target cleavage rate (min^-1); MIWI and MILI are mouse PIWI proteins and EfPiwi is from a freshwater sponge; tags in brackets are library labels; higher = faster piRNA-guided slicing of the target
Details: guide: L1MC piRNA 5'p-UAACUAAAUACUAUGCAAGCUGUAGGUCCU; auxiliary factor: 500 nM mouse GTSF1
In short: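 Reactions were run for 0–8 or 0–960 min at 33 °C in HEPES–potassium acetate buffer, combining 1 nM active affinity-purified piRISC with one synthetic guide, […] transcribed, DNA-blocked target RNA library and, in some cases, 500 nM GTSF1 partner protein. Sequencing of uncleaved targets followed, with normalisation to depth and to weakly complementary targets. Three trials were pooled, k3 was capped at 0.0001 min^-1, and the pre-steady-state cleavage rate was taken from a burst-and-steady-state fit.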
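Further: 1 nM active piRISC with 0.1 nM target library at 33 °C single turnover.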

Row | Sequence | pre-steady-state target cleavage rate
1 | UCCUGGAUGUCCUUGGAUAGUAUUUUGUUA | 0.0668 ± 0.017
2 | UCCUGCUUGUGCUUGCAUAGUAUUUUCAAA | 0.0168 ± 0.0052
3 | UCGACCUACAGCUACGAUAGUAUUUAGUAA | 0.0658 ± 0.019
4 | AGGACCUACAGCUUGCAUAGAAUUUUCAAA | 0.395 ± 0.08
5 | UCCUGGAACAGCUUGCAUAGUAUAUACAAA | 0.266 ± 0.059
6 | UGGACCUACAGCUUGCAUAGUUAUUUCAAA | 0.0192 ± 0.009
7 | AGGACCUACAGGAUGCAUAGUAUUUAGAAA | 0.377 ± 0.049
8 | UCCUGGAUGUCCAUUGCAUAGUAUUUAGUUA | 0.0301 ± 0.009
9 | UCCUGGAUGUCGAUGCAUGGUAUUUAGUUA | 0.00397 ± 0.0034
10 | UCCUGGUACUCCUUGCAUAGUAUUUACAAA | 0.0182 ± 0.0084
11 | AGGACCUACAGCUUGCAUAGUAUUAUGUAA | 0.301 ± 0.075
12 | UCCUGGAUGUCGUUGCAAAGUAUUUAGUUA | 0.00574 ± 0.0025
13 | UCCUGGAACAGGAUGCAUAGUAUUUAGAAA | 0.0231 ± 0.0073
14 | UCGACCUACAGGAAGCAUAGUAUUUUCAAA | 0.0543 ± 0.015
15 | UCCUGGAUGUCGAUGCAUAGUAUUUGGUUA | 0.0108 ± 0.004
